According to the BET-seq Pho4 binding data (Le et al. 2018):
This is one part of the list. These are noisy estimates, calculated here from bound and input reads.

Target: T1, Pho4 (S. cerevisiae) (UniProt P07270)
T1 sequence: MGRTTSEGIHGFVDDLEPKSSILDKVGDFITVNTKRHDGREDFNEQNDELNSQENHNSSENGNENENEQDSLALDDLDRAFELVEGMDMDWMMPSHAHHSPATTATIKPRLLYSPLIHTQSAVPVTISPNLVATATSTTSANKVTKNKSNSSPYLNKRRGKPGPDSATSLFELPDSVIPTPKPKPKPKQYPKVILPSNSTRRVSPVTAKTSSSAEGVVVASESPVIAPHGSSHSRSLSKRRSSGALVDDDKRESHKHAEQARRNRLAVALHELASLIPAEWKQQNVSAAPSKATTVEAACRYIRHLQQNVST
Experiment: relative binding free energy (BET-seq); higher = weaker binding
Settings: reference: library average

| Sequence | relative binding free energy [kcal/mol] |
| --- | --- |
| AAGCTCACGTGTAGGT | 0.19 |
| ATATACACGTGTTGGG | 0.01 |
| TAGTTCACGTGCTGAG | 0.43 |
| TCGGTCACGTGGATGA | 0.11 |
| GTGGACACGTGGAGGC | 0 |
| TTTCTCACGTGTTGCA | 0.24 |
| GATGACACGTGGGGGT | -0.05 |
| TATTGCACGTGTGGGT | 0.11 |
| GGGCTCACGTGGTTTG | 0.28 |
| GATGTCACGTGGAAGA | 0.28 |
| ATACGCACGTGTGGTG | -0.11 |
| GGTAGCACGTGCTGGT | -0.07 |
| GGTAACACGTGATTAA | 0.3 |
| AAAGGCACGTGAGTTA | 0.06 |
| GACGGCACGTGAGGGA | 0.1 |
| TTCTGCACGTGAAGAT | 0.34 |
| AATTTCACGTGGAGTT | 0.28 |
| AGGAACACGTGGATTT | 0.14 |
| TGATACACGTGGGGCT | -0.01 |
| TTGGGCACGTGACTTT | 0.04 |
| TTTTACACGTGTATGC | 0.05 |
| TGCGCCACGTGGCGTG | -0.14 |
| GCGGTCACGTGGGCAT | -0.01 |
| ATGCTCACGTGGTTGG | 0.12 |
| TGTCTCACGTGTTTTG | 0.35 |

| Sequence | relative binding free energy [kcal/mol] |
| --- | --- |
| CGGCGCACGTGTGAGG | -0.12 |
| TGAAGCACGTGTGTCT | -0.15 |
| CGGCTCACGTGGGCGG | 0.18 |
| GTGCTCACGTGCAGTG | 0.18 |
| CGAGTCACGTGTTATG | 0.18 |
| TTGAGCACGTGAGTAG | 0.13 |
| GTAAACACGTGGGGTA | -0.21 |
| TAGTGCACGTGTCCGG | 0.05 |
| TCTTCCACGTGTGGTT | 0.16 |
| TGTGTCACGTGATCAT | 0.1 |
| GCGGCCACGTGGTGTG | -0.08 |
| TTCGTCACGTGTAGTC | 0.14 |
| GTAGACACGTGAGGGC | 0.28 |
| TTAGTCACGTGCTTTA | -0.07 |
| GAAGGCACGTGTAGTA | -0.06 |
| TCGTGCACGTGATTTA | 0.04 |
| TAAATCACGTGGTTAA | 0.13 |
| AAGTTCACGTGAAGAT | 0.34 |
| TATAACACGTGGCATT | 0 |
| CGATTCACGTGGTTGT | 0.24 |
| ATTTGCACGTGGGTCT | -0.21 |
| TGTGTCACGTGAATAA | 0.28 |
| GGATACACGTGGGTAT | -0.1 |
| AAATTCACGTGTTGCT | 0.31 |
| GCGAGCACGTGGGGAG | -0.18 |

| Sequence | relative binding free energy [kcal/mol] |
| --- | --- |
| ATAACCACGTGTGTTT | -0.03 |
| CGTGGCACGTGTAGTT | -0.06 |
| TGCGGCACGTGTTAGC | -0.06 |
| GCTGTCACGTGTGAGT | 0.11 |
| TGCGTCACGTGAGTGC | 0.13 |
| TCTAACACGTGTTGGT | -0.11 |
| GGGATCACGTGATGGC | 0.31 |
| GTTTTCACGTGTACAT | 0.36 |
| TGATTCACGTGACGGC | 0.48 |
| GGAAGCACGTGGGTGG | -0.22 |
| GGTTGCACGTGTCATT | 0.09 |
| AATGTCACGTGTGTTC | 0.23 |
| AGGTGCACGTGAGTGG | 0.26 |
| AAGTTCACGTGGACGG | 0.36 |
| TTGAGCACGTGGTTGC | -0.13 |
| TTTGCCACGTGTGATA | 0.03 |
| TTGTTCACGTGAGATC | 0.39 |
| GTGTGCACGTGCAGGT | 0.01 |
| TTAAACACGTGGTGGA | -0.07 |
| TGGCGCACGTGGCGAG | -0.19 |
| TGCGGCACGTGGTGAA | -0.08 |
| GGAAGCACGTGGAATT | 0.16 |
| CGGGTCACGTGGGTGT | -0.05 |
| ATGCGCACGTGTGGAT | -0.04 |
| GTTGACACGTGTAGAT | 0.12 |

| Sequence | relative binding free energy [kcal/mol] |
| --- | --- |
| GGCGGCACGTGAGTTG | 0.2 |
| ATTTGCACGTGATGAA | 0.1 |
| TGAGACACGTGAGTGG | 0.26 |
| TGGTGCACGTGTTGCT | -0.24 |
| AGACACACGTGGTGGG | -0.16 |
| TGAATCACGTGGGTAG | 0.03 |
| ATATTCACGTGGTTAG | 0.19 |
| GTGGACACGTGGTCGT | -0.01 |
| TAGTGCACGTGGATCG | 0.04 |
| GAAATCACGTGTTGTA | 0.14 |
| GTCGTCACGTGTGTAA | 0.25 |
| GTCTTCACGTGGGGAG | 0.2 |
| TTAAACACGTGTGAGG | 0.16 |
| TTAGACACGTGATAGG | 0.08 |
| GACTTCACGTGGTTGT | 0.26 |
| AGGTCCACGTGTTTAG | 0.07 |
| AGTTTCACGTGTAGGC | 0.18 |
| ATGGGCACGTGCGGAA | -0.17 |
| CGTATCACGTGCTGGG | -0.04 |
| TTGAGCACGTGGAGGC | -0.14 |
| ATTCTCACGTGTTAGG | 0.21 |
| TATGACACGTGTTAAA | 0.11 |
| GGGGTCACGTGATTAG | 0.22 |
| TGGTGCACGTGGGAAA | -0.1 |
| TTTAGCACGTGGTGAC | -0.18 |

| Sequence | relative binding free energy [kcal/mol] |
| --- | --- |
| TGTGGCACGTGGTTGT | -0.04 |
| CATGGCACGTGTTATG | -0.03 |
| GGTCTCACGTGGGGGG | 0.13 |
| AGGACCACGTGTATTT | 0.15 |
| TTACGCACGTGGGTGC | -0.27 |
| TACGGCACGTGGATAG | 0.01 |
| TTCATCACGTGCTGGT | 0.08 |
| GTCAGCACGTGCAGGG | 0.06 |
| GGTATCACGTGTTGCT | 0.24 |
| AGTGCCACGTGGTTGG | -0.19 |
| GGTGTCACGTGTAGCG | 0.07 |
| TTCAGCACGTGAGTTA | 0.18 |
| CATGGCACGTGTGGTG | -0.13 |
| ATTGTCACGTGTTTCT | 0.07 |
| TAGCGCACGTGGAATT | 0.18 |
| GGTGTCACGTGAATGA | 0.37 |
| GGCGACACGTGGCGGT | -0.03 |
| ATGTCCACGTGGTGCG | -0.12 |
| TATTTCACGTGGGATG | 0.26 |
| GAGTTCACGTGCGTAG | 0.17 |
| ATTTTCACGTGCCTTT | 0.15 |
| CGCGACACGTGGGTTG | 0.05 |
| GATTTCACGTGGACGG | 0.32 |
| GTGGGCACGTGGAGCT | -0.03 |
| GGTTTCACGTGTGTTG | 0.31 |

| Sequence | relative binding free energy [kcal/mol] |
| --- | --- |
| TGTGACACGTGAGTGC | 0.19 |
| TAGCACACGTGTGGGT | 0.05 |
| CTGTCCACGTGGGGGG | -0.29 |
| TAGTTCACGTGACTTT | 0.31 |
| AAGGCCACGTGTGGGA | -0.08 |
| ATTGGCACGTGGTTGC | -0.1 |
| CTGGTCACGTGTGCGG | 0.07 |
| GATCTCACGTGAGGTT | 0.5 |
| TTGTTCACGTGCGTTT | 0.24 |
| CTGTGCACGTGGAGGG | 0.07 |
| GGGTACACGTGGTGCT | 0.06 |
| GCGGTCACGTGGGAGG | 0.05 |
| TTGAGCACGTGGTAGC | -0.1 |
| AGTAACACGTGCTGTG | -0.05 |
| AGGCGCACGTGTGCTG | -0.17 |
| GAAGTCACGTGGCGGT | 0.09 |
| CTGGGCACGTGGTATA | -0.35 |
| GTGAGCACGTGATGTC | 0.12 |
| GGGCTCACGTGTGAAG | 0.3 |
| GTAATCACGTGGGTAG | 0.05 |
| CAATTCACGTGTGTTT | 0.33 |
